The whole screen tested about 410,000 compounds, of which about 1,200 (0.29%) were called active. About 2% were inconclusive and are not listed. Calls come from the whole dose curve; as a rule, active = well fitted activation curve with a large enough effect; inconclusive = small, poorly fitted or top-dose-only effect; inactive = flat fitted curve, though single readings scatter. This is a selection; strong and weak results do not stand in their true shares.
Assay: qHTS of Nrf2 Activators; note: nearly all actives have a fitted effect of over 65% in size; for activation: % of control where 0% means no effect
Conditions: AREc32 ARE-luciferase reporter (MCF7-derived line), luminescence, 24 h; series mostly up to 46.1 µM; activation: at the top concentration
From the text: Many diseases have some form of oxidative stress injury and ties to inflammation, causing a host of problems for the patient. The antioxidant response element (ARE) plays an important role in alleviating the harmful effects of oxidative stress. The antioxidant response element (ARE) is a transcriptional regulatory element involved in the activation of genes coding for a number of antioxidant proteins and detoxifying enzymes. These enzymes work in concert to protect tissues from oxidative insults and chemical toxicities in human hepatocytes and immune cells. The protective effects of ARE activation are primarily triggered through Nrf2 (NF-E2-related factor) binding to and activating AREs. It is known that Nrf2 controls the production of over 250 antioxidant and detoxification proteins (Hu et al., 2006), thereby protecting tissues by increasing cellular antioxidant content and suppressing inflammatory signaling pathways. The transcription factor Nrf2 is a central link between oxidative chemicals, such as phenolic antioxidants and electrophilic compounds, and the activation of ARE. Nrf2 levels are constitutively low as a consequence of its interaction with Keap1, which targets its degradation (Zipper and Mulcahy, 2002). Electrophiles react with key cysteine residues in Keap1, releasing Nrf2 and allowing its translocation to the nucleus. Once within the nucleus, Nrf2 complexes with coactivators such as p300, and binds to the AREs to induce gene transcription of cytoprotective enzymes, resulting in the prevention of toxicity. Activation of Nrf2 protects tissues by increasing cellular antioxidant content and suppressing inflammatory signaling pathways. Identifying novel and potent Nrf2 activators by using the AREc32 cell line to detect ARE activation by small molecules will lead to the identification and development of probes to study protective pathways in multiple tissues. These specific probes are essential to study the ARE pathway, and eventually to determine whether this pathway does activate genes that could protect against a host of diseases, including cardiovascular diseases, obesity, diabetes, Alzheimer's, and Parkinson's disease.
This project's aim is to identify novel and potent Nrf2 activators by using the AREc32 cell line to detect ARE activation by small molecules, which will lead to the identification and development of probes to study the ARE pathway.
NIH Chemical Genomics Center [NCGC]
NIH Molecular Libraries Probe Centers Network [MLPCN]
Assay Submitter (PI): Curtis Klaassen, University of Kansas Medical Center
5 uL of 1000 cells/well of AREc32_Fluc cells are seeded into 1536-well plate in OPTI-MEM medium with 5% FBS. The plates are incubated overnight at 37 deg C with 5% CO2. Then through pin tool transfer, 23 nL of compounds are added to each well before a 24 hr incubation at 37 deg C with 5% CO2. After the addition of 2.5 uL of Steady-Glo. the plates are kept at RT for 30 min, before they are read on the ViewLux.
Potency is the fitted concentration of half-maximal effect.

Compound	Potency	activation
Cc1ccc(NCCC(=O)c2cccs2)cc1C	active: 22.4 µM	–
Cc1cc(NCc2ccco2)n2c(nc3ccccc32)c1C#N	active: 5.01 µM	–
O=C(O)c1cc(-c2ccco2)nc2ccc(Br)cc12	–	inactive: 18.7%
Cc1ccc(C(=O)/C=C\C(=O)c2ccc(C)cc2)cc1	–	inactive: 4.02%
Clc1ccccc1CN1CCN(/N=C/C=C\c2ccco2)CC1	–	inactive: 16.6%
O=C(CCn1c(=O)c2cccn2c2ccccc21)Nc1ccc(F)cc1	–	inactive: 22.7%
c1ccc(CSc2ncnc3sccc23)cc1	active: 11.2 µM	–
Cc1ccc(CN2CCN(/N=C/C(Br)=C\c3ccccc3)CC2)cc1	–	inactive: 22.9%
O=C(CN1CCN(Cc2ccccc2)CC1)N/N=C/C=C/c1ccco1	–	inactive: 16% [at 9.22 µM]
Cc1ccc(O)c(NC(=O)c2noc3c2CCCCC3)c1	–	inactive: 22.5%
O=C1NC(=Nc2ccccc2)S/C1=C/c1cccs1	–	inactive: 27.6%
COC(C[C@@H]1O[C@@H]1C(=O)[C@@H](C)OCc1ccccc1)OC	–	inactive: -0.0164%
CC(=C/C(=O)O)/C=C/c1ccc(Cl)o1	–	inactive: 16.4%
Cc1cccc(NC(=O)Nc2ccc(Br)cc2)n1	–	inactive: 22.7%
CC1=NN(c2ccccc2)C(=O)/C1=C/C=C/c1ccccc1	active: 11.2 µM	–
O=C(COc1cccnc1[N+](=O)[O-])Nc1cccc2ccccc12	active: 5.62 µM	–
O=C1/C(=C\c2ccc3c(c2)OCO3)CCC/C1=C/c1ccc2c(c1)OCO2	–	inactive: 7.34%
Oc1cc2c(cc1O)C(c1ccccc1)CNCC2 (stereo not given)	–	inactive: 9.48%
COC(=O)N1C(=O)[C@@](c2ccc(OC)cc2)(C(C)C)N1C(=O)OC	–	inactive: 27.6%
COC(C/C=C/C(=O)[C@H](C)OCc1ccccc1)OC	–	inactive: -2.67%
CN1CCN(Cc2nc3ccccc3c(=O)n2Cc2nc(-c3ccc4ccccc4c3)cs2)CC1	–	inactive: -1.87%
Cn1ccnc1SCC(=O)c1ccc(Cl)cc1	–	inactive: 26.3%
Cc1[nH][nH]c(=O)c1C(c1ccccc1[N+](=O)[O-])C(C#N)C#N (stereo not given)	–	inactive: -0.569%
COc1cc(/C=C2/SC(=S)N(CCC(=O)N3CCN(C)CC3)C2=O)cc(OC)c1OC	–	inactive: 6.53%
COC(C[C@H]1O[C@H]1C(=O)[C@H](C)OCc1ccccc1)OC	–	inactive: 4.05%
CN(C)/C=C1\C=C(c2ccccc2)OC1=O	–	inactive: 12.3%
N#C/C(=C(/O)COC(=O)CCCNC(=O)c1ccc(Cl)cc1)c1nc2ccccc2[nH]1	–	inactive: 5.64%
O=C(/C=C/Nc1cccc(O)c1)c1ccccc1	active: 14.1 µM	–
CC(C)N1C(=O)/C(=C\c2nc3ccccc3c(=O)n2-c2ccccc2)c2ccccc21	–	inactive: 18.1%
O=C(Nc1nc2cc3c(cc2s1)OCCO3)c1ccc([N+](=O)[O-])o1	active: 7.08 µM	–
